The whole screen tested about 150,000 compounds, of which about 540 (0.36%) showed an effect of 50% or more. Some of the results follow.

For the experiment, the system named is Plasmodium falciparum. Description: Primary screen in NF54 nanoGlo assay, in single point, at 2uM, 72h; a lower Z score goes with more inhibition. Particulars: timepoint 72 hour. Format: functional, Erythrocyte.
For `CCN(Cc1cc(Cl)c(OC)cc1OC)[C@H]1COC[C@@H]1O`, the % Inhibition (in general, the change of the read-out against control, counted positive when it falls) is reported as -2% and the Z score is recorded as 0.27.

In the case of `CCc1noc(-c2csc(C(=O)NC3CCCCCC3)n2)n1`, the “% Inhibition” value is given as -10% and the Z score is 1.57.

For `Cc1c(NC(=O)N2CC3(CCCC3)[C@H]2c2ccccc2)nnn1C`, the “% Inhibition” value stood at 6% and the Z score is -0.73.

`CCCc1nc(C)c(NC(=O)N2C[C@@H](NC(C)=O)[C@H](c3nccn3C)C2)s1`: the “% Inhibition” value stood at 2% and the Z score was -0.32.

Take `CCn1cc(CC(=O)N2CCOc3ccc(O)cc3C2)nn1`: the “% Inhibition” value stood at 1% and the Z score is listed as -0.12.

Consider `O=C(c1ccc(-c2cc(O)c(F)c(F)c2)cc1)N1C[C@@H]2[C@@H]3CC[C@@H](C3)[C@@H]2C1`, for which the “% Inhibition” value was -4% and the Z score was found to be 0.5.

Take `C[C@@H](c1ccc(Cl)cc1Cl)N(C)C(=O)c1cn2c(n1)CCCC2`: the “% Inhibition” value is recorded as -14% and the Z score amounted to 1.81.

For `CCC(=O)Nc1c(C(=O)N2CCC(N3CCCCC3)CC2)oc2ccccc12`, the “% Inhibition” value was determined as 1% and the Z score was -0.11.

On to `O=C(Cc1cccs1)NC1CCCCCCC1`, for which the “% Inhibition” value is reported as -6% and the Z score is 1.15.

With `CCc1nsc(N(C)Cc2nccn2CC(F)(F)F)n1`, the “% Inhibition” value is given as -6% and the Z score came out at 0.7.

Turning to `Cc1cnn(CCNCc2nc(C)c(C)o2)c1`, the “% Inhibition” value was -9% and the Z score was 1.2.

Turning to `COC(=O)[C@H]1C[C@@H](C(=O)NCc2ccncc2C)[C@@H](c2cccc(F)c2F)N1C`, the “% Inhibition” value is recorded as -11% and the Z score amounted to 1.39.

In the case of `CCN(C(=O)c1ccc(-c2cccc3c(N)ccnc23)cc1)[C@H]1COC[C@@H]1O`, the “% Inhibition” value was -3% and the Z score turned out to be 0.38.

For the molecule `CN1CCCC[C@@H]1CNS(=O)(=O)N1CCCC1`, the “% Inhibition” value is listed as 18% and the Z score is recorded as -2.33.

As to `O=C(CC1CCCCC1)N1CCN(C(=O)[C@@H]2CCCc3cccnc32)CC1`, the “% Inhibition” value turned out to be 3% and the Z score is given as -0.3.

Consider `COc1ccc(C(CN2CCN(C)CC2)NC2CC3CCC2C3)cc1` (centres undefined), for which the “% Inhibition” value worked out at 2% and the Z score is given as -0.3.

`Cc1cccc(NC(=O)N2CCN(C(=O)c3nsc4ccccc34)CC2)c1`: the “% Inhibition” value was -2% and the Z score is 0.44.

For the molecule `C[C@H]1COCCN1c1ccc(NC(=O)c2ncoc2-c2ccccc2Cl)cc1`, the “% Inhibition” value is -2% and the Z score is on record as 0.28.

Take `O=C(NC1CC1)c1ccccc1C(=O)c1ccc(F)cc1`: the “% Inhibition” value is recorded as -8% and the Z score is listed as 1.02.

As for `COc1ccc2c(c1)C(C(=O)N1CCCCC1C(=O)O)CCC2` (centres undefined), the “% Inhibition” value is listed as -4% and the Z score was found to be 0.53.

`O=C(Nc1nc2ccccc2s1)c1csc2c1CCCC2`: the “% Inhibition” value is reported as 30% and the Z score is -3.37.

Regarding `CCC(NC(=O)C1CCC(=O)N1C)C1CN(Cc2ccccc2)CCO1` (centres undefined), the “% Inhibition” value is -8% and the Z score worked out at 1.58.

On to `Cc1ccc(F)c(S(=O)(=O)N2CCCC(N3C(C)CCC3C)C2)c1` (centres undefined), for which the “% Inhibition” value is listed as -8% and the Z score is on record as 0.85.

As for `CC1(C)[C@]2(C(=O)Nn3cnnc3)CC[C@@]1(C)OC2=O`, the “% Inhibition” value amounted to 2% and the Z score is listed as -0.45.

With `CC(C)[C@]1(C)CC(=O)N(Cc2nnn(C)n2)C1=O`, the “% Inhibition” value is given as 5% and the Z score is -0.49.

On to `Cc1nn(C)c(Cl)c1-c1nnc2cccc(C)n12`, for which the “% Inhibition” value is given as -11% and the Z score was found to be 1.34.

For the molecule `C[C@H]1CN(C(=O)c2cnccc2N)CCCO1`, the “% Inhibition” value amounted to 0% and the Z score is 0.07.

As for `Cc1nccn1Cc1nnc(C2CCN(c3ncnc4[nH]ccc34)CC2)n1C`, the “% Inhibition” value is -4% and the Z score amounted to 0.7.

On to `CN(CC(=O)Nc1ccc2c(c1)OCO2)Cc1cccs1`, for which the “% Inhibition” value is recorded as -6% and the Z score came to 0.92.

For the molecule `Cc1cc(C(F)F)nn1CC(=O)Nc1sc2c(c1C#N)CCC2`, the “% Inhibition” value is recorded as -6% and the Z score turned out to be 0.88.

As for `COCC(=O)N(CCN1CCCC1)CC(=O)N(Cc1ccc(F)cc1)Cc1cccs1`, the “% Inhibition” value is given as 10% and the Z score was -0.98.

As for `CC1(C)CC(Nc2cnn(-c3ccncc3)c2)CC(C)(C)O1`, the “% Inhibition” value was -5% and the Z score turned out to be 0.92.

On to `CCCC(=O)Nc1ccc([C@H](C)O)cc1`, for which the “% Inhibition” value is reported as -16% and the Z score is recorded as 1.5.

On to `COc1ccc(C(C)N(C)C(=O)CC2(c3cccc(C(F)(F)F)c3)CC(=O)N(C3CC3)C2=O)cc1` (centres undefined), for which the “% Inhibition” value was -16% and the Z score was determined as 3.06.

Consider `N#Cc1cccc(-c2cn3c(n2)N(C(=O)C2CCC2)CCC3)c1`, for which the “% Inhibition” value is on record as -2% and the Z score came to 0.27.

For `Cc1cc(OCc2cc(C)on2)cc(C)n1`, the “% Inhibition” value is 29% and the Z score is -3.92.

As for `Cc1ccc(-n2nc(C)c3c(=O)n(CC(=O)NCc4ccccc4C(F)(F)F)ccc32)cc1`, the “% Inhibition” value was 0% and the Z score is recorded as -0.01.

With `Cc1cc(C(=O)NCCCC2CCCC2)on1`, the “% Inhibition” value is recorded as -14% and the Z score was found to be 2.15.

With `CN(C)C[C@@H]1CN(C(=O)c2ccccc2OCc2ccccc2)C[C@@H]1CO`, the “% Inhibition” value is listed as -6% and the Z score is listed as 0.95.

Turning to `CC1CCN(S(=O)(=O)N(C)c2ccn(C)n2)CC1`, the “% Inhibition” value is -9% and the Z score worked out at 1.02.

Turning to `COc1ccc(C2C3COC(C)OCC3ON2C)cc1OC` (centres undefined), the “% Inhibition” value is on record as 7% and the Z score was -0.87.

On to `CC(C)(C)CC(=O)N1C[C@@H]2CN(CCO2)C(=O)[C@@H]2C[C@@H](CN2Cc2cccc(Cl)c2)NC(=O)C[C@@H]2O[C@H](C1)[C@@H](O)[C@H]2O`, for which the “% Inhibition” value is on record as 10% and the Z score was -1.32.

The values above are taken from ChEMBL document CHEMBL4888484, “Replenishing the malaria drug discovery pipeline: Screening and hit evaluation of the MMV Hit Generation Library 1 (HGL1) against asexual blood stage Plasmodium falciparum ,using a nano luciferase reporter read-out” (2022).
